Reference: US6911428B2, “Diaryl peptides as NS3-serine protease inhibitors of hepatitis C virus” (Schering Corporation, priority 2000, dated 2005)

Biological target: Recombinant heterodimeric HCV NS3/NS4A protease (strain 1a) (Hepatitis C virus genotype 1a, UniProt P27958)
Assay: Spectrophotometric assay for HCV serine protease inhibitory activity (chromogenic ester substrates)
Format: biochemical
Settings: competitive inhibition, 30° C., pH 6.5 assay buffer
Experimental: Spectrophotometric assay for the HCV serine protease was performed on the inventive compounds by following the procedure described by R. Zhang et al, Analytical Biochemistry, 270 (1999) 268-275, the disclosure of which is incorporated herein by reference. The assay based on the proteolysis of chromogenic ester substrates is suitable for the continuous monitoring of HCV NS3 protease activity. The substrates were derived from the P side of the NS5A-NS5B junction sequence (Ac-DTEDWX(Nva), where X=A or P) whose C-terminal carboxyl groups were esterified with one of four different chromophoric alcohols (3- or 4-nitrophenol, 7-hydroxy-4-methyl-coumarin, or 4-phenylazophenol). Presented below are the synthesis, characterization and application of these novel spectrophotometric ester substrates to high throughput screening and detailed kinetic evaluation of HCV NS3 protease inhibitors.
Protein concentrations were determined by the Biorad dye method using recombinant HCV protease standards previously quantified by amino acid analysis. Prior to assay initiation, the enzyme storage buffer (50 mM sodium phosphate pH 8.0, 300 mM NaCl, 10% glycerol, 0.05% lauryl maltoside and 10 mM DTT) was exchanged for the assay buffer (25 mM MOPS pH 6.5, 300 mM NaCl, 10% glycerol, 0.05% lauryl maltoside, 5 μM EDTA and 5 μM DTT) utilizing a Biorad Bio-Spin P-6 prepacked column. Substrate Synthesis and Purification: The synthesis of the substrates was done as reported by R. Zhang et al, (ibid.) and was initiated by anchoring Fmoc-Nva-OH to 2-chlorotrityl chloride resin using a standard protocol (K. Barlos et al, Int. J. Pept. Protein Res., 37 (1991), 513-520). The peptides were subsequently assembled, using Fmoc chemistry, either manually or on an automatic ABI model 431 peptide synthesizer. […] The combined filtrate and DCM wash was evaporated azeotropically (or repeatedly extracted by aqueous Na2CO3 solution) to remove the acid used in cleavage. The DCM phase was dried over Na2SO4 and evaporated.
The ester substrates were assembled using standard acid-alcohol coupling procedures (K. Holmber et al, Acta Chem. Scand., B33 (1979) 410-412). Peptide fragments were dissolved in anhydrous pyridine (30-60 mg/ml) to which 10 molar equivalents of chromophore and a catalytic amount (0.1 eq.) of para-toluenesulfonic acid (pTSA) were added. Dicyclohexylcarbodiimide (DCC, 3 eq.) was added to initiate the coupling reactions. Product formation was monitored by HPLC and found to be complete following 12-72 hour reaction at room temperature. Pyridine solvent was evaporated under vacuum and further removed by azeotropic evaporation with toluene. The peptide ester was deprotected with 95% TFA in DCM for two hours and extracted three times with anhydrous ethyl ether to remove excess chromophore. The deprotected substrate was purified by reversed phase HPLC on a C3 or C8 column with a 30% to 60% acetonitrile gradient (using six column volumes). The overall yield following HPLC purification was approximately 20-30%. The molecular mass was confirmed by electrospray ionization mass spectroscopy. The substrates were stored in dry powder form under desiccation.
Spectra of Substrates and Products: Spectra of substrates and the corresponding chromophore products were obtained in the pH 6.5 assay buffer. Extinction coefficients were determined at the optimal off-peak wavelength in 1-cm cuvettes (340 nm for 3-Np and HMC, 370 nm for PAP and 400 nm for 4-Np) using multiple dilutions. The optimal off-peak wavelength was defined as that wavelength yielding the maximum fractional difference in absorbance between substrate and product (product OD−substrate OD)/substrate OD). Protease Assay: HCV protease assays were performed at 30° C. using a 200 μl reaction mix in a 96-well microtiter plate.

Row | Ki (read-out: HCV Assay Range Ki*) [nM] | SMILES | Ki (HCV Assay Range Ki* (nM)) [nM]
1 | 100 to 999 | CCCC(NC(=O)[C@@H]1CC2(CN1C(=O)C(NC(=O)OC(C)(C)C)C(C)(C)C)SCCCS2)C(=O)C(=O)NCC(=O)NC(c1ccccc1)c1ccco1 (stereo partly drawn) [XXIV] | –
2 | 100 to 999 | CCCC(NC(=O)[C@@H]1CC2(CN1C(=O)C(NC(=O)Cc1ccccc1)C(C)(C)C)SCCCS2)C(=O)C(=O)NCC(=O)NC(c1ccccc1)c1nc[nH]n1 (stereo partly drawn) [XIV] | –
3 | 100 to 999 | CCCC(NC(=O)[C@@H]1CC2(CN1C(=O)C(NC(=O)Cc1ccccc1)C(C)(C)C)SCCCS2)C(=O)C(=O)NCC(=O)NC(c1ccccc1)c1ccccc1 (stereo partly drawn) [XVII] | –
4 | 10000 to 50000 | CCCC(NC(=O)C(CC(C)C)NC(=O)C(NC(=O)OCC(C)C)C1CCCCC1)C(=O)C(=O)NCC(=O)NC(c1ccc(S(=O)(=O)NCC2CCCCC2)cc1)c1nccn1C (stereo not drawn) [VIII] | –
5 | 100 to 999 | CCCC(NC(=O)[C@@H]1CC2(CN1C(=O)C(NC(=O)OC(C)(C)C)C(C)(C)C)SCCCS2)C(=O)C(=O)NCC(=O)NC(c1ccccc1)c1cccs1 (single isomer, unassigned) [XXII] | –
6 | 1000 to 10000 | CCCC(NC(=O)C1CC2CN1C(=O)[C@H](C(C)(C)C)NC(=O)CCc1ccc(cc1)OCCCO2)C(=O)C(=O)NCC(=O)NC(c1ccccc1)c1nnnn1C(C)(C)C (stereo partly drawn) [XXVII] | –
7 | 100 to 999 | CCCC(NC(=O)C1CC2(CN1C(=O)C(NC(=O)OC(C)(C)C)C(C)(C)C)SCCCS2)C(=O)C(=O)NCC(=O)NC(c1ccccc1)c1nnnn1C (stereo not drawn) [XX] | –
8 | 100 to 999 | CCCC(NC(=O)C1C[C@@H](OCc2ccccc2)CN1C(=O)C(NC(=O)OCC(C)C)C1CCCCC1)C(=O)C(=O)NCC(=O)NC(c1ccccc1)c1ccccn1 (stereo partly drawn) [III] | –
9 | 1000 to 10000 | CCCC(NC(=O)[C@@H]1C[C@@H](OCc2ccccc2)CN1C(=O)C(NC(=O)OCC(C)C)C1CCCCC1)C(=O)C(=O)NCC(=O)NC(c1ccc(O)cc1)c1ccccn1 (stereo partly drawn) [VI] | –
10 | 10 to 99 | CCCC(NC(=O)[C@@H]1CC2(CN1C(=O)C(NC(=O)OC(C)(C)C)C(C)(C)C)SCCCS2)C(=O)C(=O)NCC(=O)NC(c1ccccc1)c1nc[nH]n1 (stereo partly drawn) [XII] | –
11 | 100 to 999 | CCCC(NC(=O)C1CC2(CN1C(=O)C(NC(=O)OC(C)(C)C)C(C)(C)C)SCCCS2)C(=O)C(=O)NCC(=O)NC(c1ccccc1)c1nnn[nH]1 (stereo not drawn) [XVIII] | –
12 | 1000 to 10000 | CCCC(NC(=O)C(CC(C)C)NC(=O)C(NC(=O)OCC(C)C)C1CCCCC1)C(=O)C(=O)NCC(=O)NC(c1ccccn1)c1ccccn1 (stereo not drawn) [IV] | –
13 | 1000 to 10000 | CCCC(NC(=O)C(CC(C)C)NC(=O)C(NC(=O)OC(C)(C)C)C1CCCCC1)C(=O)C(=O)NCC(=O)NC(C(=O)OC)(c1ccccc1)c1ccccc1 (stereo not drawn) [VII] | –
14 | – | CCCC(NC(=O)[C@@H]1CC2(CN1C(=O)C(NC(=O)OC(C)(C)C)C(C)(C)C)SCCCS2)C(=O)C(=O)NCC(=O)NC(c1ccccc1)c1ncn(COCC[Si](C)(C)C)n1 (stereo partly drawn) [XIX] | 1000 to 10000
15 | 100 to 999 | CCCC(NC(=O)[C@@H]1CC2(CN1C(=O)C(NC(=O)OCC(C)C)C(C)(C)C)SCCCS2)C(=O)C(=O)NCC(=O)NC(c1ccccc1)c1ccccc1 (stereo partly drawn) [XVI] | –
16 | 100 to 999 | CCCC(NC(=O)C1CC2CN1C(=O)[C@H](C(C)(C)C)NC(=O)Cc1cccc(c1)OCCCO2)C(=O)C(=O)NCC(=O)NC(c1ccccc1)c1nnnn1C(C)(C)C (stereo partly drawn) [XXVI] | –
17 | 100 to 999 | CCCC(NC(=O)[C@@H]1CC2(CN1C(=O)C(NC(=O)OCC(C)C)C1CCCCC1)SCCCS2)C(=O)C(=O)NCC(=O)NC(c1ccccc1)c1nc[nH]n1 (stereo partly drawn) [XI] | –
18 | 100 to 999 | CCCC(NC(=O)[C@@H]1CC2(CN1C(=O)C(NC(=O)OC(C)(C)C)C(C)(C)C)SCCCS2)C(=O)C(=O)NCC(=O)NC(c1ccccc1)c1nccs1 (stereo partly drawn) [XXV] | –
19 | 1000 to 10000 | CCCC(NC(=O)[C@@H]1CC2(CN1C(=O)C(NC(=O)OC(C)(C)C)C(C)(C)C)SCCCS2)C(=O)C(=O)NCC(=O)NC(c1ccccc1)c1cccs1 (single isomer, unassigned) [XXIII] | –
20 | 100 to 999 | CCCC(NC(=O)[C@@H]1C[C@@H](OCc2ccccc2)CN1C(=O)C(NC(=O)OCC(C)C)C1CCCCC1)C(=O)C(=O)NCC(=O)NC(c1ccccn1)c1ccccn1 (stereo partly drawn) [V] | –
21 | 100 to 999 | CCCC(NC(=O)[C@@H]1CC2(CN1C(=O)C(NC(=O)OCC(C)C)C(C)(C)C)SCCCS2)C(=O)C(=O)NCC(=O)NC(c1ccccc1)c1nc[nH]n1 (stereo partly drawn) [XIII] | –
22 | 1000 to 10000 | CCCC(NC(=O)C(CC(C)C)NC(=O)C(NC(=O)OCC(C)C)C1CCCCC1)C(=O)C(=O)NCC(=O)NC(c1ccc(S(=O)(=O)NC(C)C)cc1)c1nccn1C (stereo not drawn) [IX] | –
23 | 10 to 99 | CCCC(NC(=O)C1CC2(CN1C(=O)C(NC(=O)OCC(C)C)C1CCCCC1)SCCCS2)C(=O)C(=O)NCC(=O)NC(c1ccccc1)c1nnn[nH]1 (stereo not drawn) [X] | –
24 | 100 to 999 | CCCC(NC(=O)[C@@H]1CC2(CN1C(=O)C(NC(=O)OC(C)(C)C)C(C)(C)C)SCCCS2)C(=O)C(=O)NCC(=O)NC(c1ccccc1)c1ccccc1 (stereo partly drawn) [XV] | –

Read-outs that look alike come from different tables or passages of the source.
